# The list shows a part of the results.
# B1: Q9UKT9 (peptide)
# chain: FYCNVCGARFTQKGNLLRHIKL
# B2: Q9UKT9 (peptide)
# chain: FCCPVCGAAFTQKGNLLRHIKL
# B3: Q9UKT9 (peptide)
# chain: FTCDICGAGFTQKGNLLRHIKL
# B4: Q9UKT9 (peptide)
# chain: FHCEICGHKFTQKGNLLRHIKL
# B5: Q9UKT9 (peptide)
# chain: LRCNQCGFPCTQKGNLLRHIKL
# B6: Q9UKT9 (peptide)
# chain: FDCPQCGAHFTQKGNLLRHIKL
# B7: Q9UKT9 (peptide)
# chain: FQCNICGAFFTQKGNLLRHIKL
# B8: Q9UKT9 (peptide)
# chain: FKCNQCGAVFTQKGNLLRHIKL
# B9: Q9UKT9 (peptide)
# chain: FWCEQCGATFTQKGNLLRHIKL
# B10: Q9UKT9 (peptide)
# chain: FKCEICGACFTQKGNLLRHIKL
# B11: Q9UKT9 (peptide)
# chain: FYCDQCGALFTQKGNLLRHIKL
# B12: Q9UKT9 (peptide)
# chain: FGCNQCGRYFTQKGNLLRHIKL
# B13: Q9UKT9 (peptide)
# chain: LHCNQCGFYCTQKGNLLRHIKL
# B14: Q9UKT9 (peptide)
# chain: FTCDVCGAEFTQKGNLLRHIKL
# Molecular target: no compound (DMSO)
# Assay: log2 fold change of degron read counts, EGFP-low vs EGFP+ sorted cells; higher = lower degron-EGFP level without compound (poor expression or instability)
# Conditions: compound: DMSO control; 18 h
# 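Note: jurkat cells carrying a lentiviral library of mutant zinc finger degrons fused to EGFP plus mCherry, mCherry+ cells FACS sorted, degron abundance counted by next-generation sequencing.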
row,Sequence,log2 fold change of degron read counts
1,B1,-0.713
2,B2,-0.0221
3,B3,-1.34
4,B4,-2.03
5,B5,1.22
6,B6,-0.855
7,B7,-0.4
8,B8,-0.759
9,B9,-1.51
10,B10,-1.22
11,B11,-1.2
12,B12,0.795
13,B13,1.53
14,B14,-1.89
